Results as given in the supplement of paper PMC4967469.
Lines with a small IC50 respond at low doses; where the fit passes the top or lowest dose, that dose stands as a limit. The AUC spans the tested range (256-fold, ending at the top dose) of the same fit; it is 1 without any effect and falls as sensitivity rises. Where the top dose is marked as inferred, it was calculated from the reported fits. Drugs with an entry number were screened twice under separate entries, and the two screens often disagree.

Each cell line was assayed with CS(=O)(=O)N1CCN(Cc2cc3nc(-c4cccc5[nH]ncc45)nc(N4CCOCC4)c3s2)CC1 [GDC0941] (assay: Viability of human cancer cell lines after 72 h of drug (GDSC screen)). Settings: screen: GDSC drug entry 1058.
Method: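 Human cancer cell lines in 384-well plates, medium with 10% serum, drug for 72 h over a 256-fold dose range (nine 2-fold or five 4-fold steps up to the top dose). Adherent lines were fixed and stained with the nucleic acid dye Syto60, suspension lines read with resazurin; signal relative to control wells, capped at 0 and 100%. One two-parameter sigmoid per drug and line, fitted in a mixed model over all curves with the slope shared within a line.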

Question: Which results are given for “NALM-6 (B-cell leukaemia, suspension, top dose 4 µM)”?
Answer: AUC: 0.461; IC50: 200 nM

Question: “NAMALWA (Burkitt lymphoma, suspension, top dose 4 µM)” was tested. Which AUC did it give?
Answer: 0.685

Question: What about the IC50 of the same cell line?
Answer: 746 nM

Question: With “NB1 (neuroblastoma, semi-adherent, top dose 4 µM)” as the cell line, how does the AUC read?
Answer: 0.649

Question: What about the IC50 of the same cell line?
Answer: 676 nM

Question: With “NB5 (neuroblastoma, adherent, top dose 4 µM)” as the cell line, how does the AUC read?
Answer: 0.674

Question: What about the IC50 of the same cell line?
Answer: 769 nM

Question: Which results are given for “NB6 (neuroblastoma, adherent, top dose 4 µM)”?
Answer: AUC: 0.955; IC50: > 4000 nM

Question: With “NB7 (neuroblastoma, adherent, top dose 4 µM)” as the cell line, how does the AUC read?
Answer: 0.95

Question: What about the IC50 of the same cell line?
Answer: > 4000 nM

Question: “NB10 (neuroblastoma, adherent, top dose 4 µM)” was tested. Which AUC did it give?
Answer: 0.966

Question: And the IC50?
Answer: > 4000 nM

Question: Which AUC does the source give for “NB12 (neuroblastoma, adherent, top dose 4 µM)” here?
Answer: 0.758

Question: What about the IC50 of the same cell line?
Answer: 1850 nM

Question: Which results are given for “NB13 (neuroblastoma, adherent, top dose 4 µM)”?
Answer: AUC: 0.951; IC50: > 4000 nM

Question: For “NB14 (neuroblastoma, adherent, top dose 4 µM)”, which AUC is on record?
Answer: 0.723

Question: What about the IC50 of the same cell line?
Answer: 1020 nM

Question: Which AUC does the source give for “NB17 (neuroblastoma, adherent, top dose 4 µM)” here?
Answer: 0.984

Question: What about the IC50 of the same cell line?
Answer: > 4000 nM

Question: Which results are given for “NB69 (neuroblastoma, adherent, top dose 4 µM)”?
Answer: AUC: 0.498; IC50: 247 nM

Question: What does the source list for “NB(TU)1-10 (neuroblastoma, adherent, top dose 4 µM)”?
Answer: AUC: 0.993; IC50: > 4000 nM

Question: For “NB-4 (acute myeloid leukaemia, suspension, top dose 4 µM)”, which AUC is on record?
Answer: 0.537

Question: And the IC50?
Answer: 309 nM

Question: Which AUC does the source give for “NCC010 (kidney, adherent, top dose 4 µM)” here?
Answer: 0.831

Question: What about the IC50 of the same cell line?
Answer: 2790 nM

Question: How did the AUC turn out when “NCC021 (kidney, adherent, top dose 4 µM)” was run?
Answer: 0.716

Question: And the IC50?
Answer: 1150 nM

Question: How did the AUC turn out when “NCI-H28 (mesothelioma, adherent, top dose 4 µM)” was run?
Answer: 0.752

Question: And the IC50?
Answer: 1700 nM

Question: How did the AUC turn out when “NCI-H64 (small cell lung carcinoma, suspension, top dose 4 µM)” was run?
Answer: 0.901

Question: And the IC50?
Answer: 2800 nM

Question: “NCI-H69 (small cell lung carcinoma, suspension, top dose 4 µM)” was tested. Which AUC did it give?
Answer: 0.715

Question: And the IC50?
Answer: 1100 nM

Question: For “NCI-H82 (small cell lung carcinoma, suspension, top dose 4 µM)”, which AUC is on record?
Answer: 0.743

Question: What about the IC50 of the same cell line?
Answer: 1180 nM

Question: Which results are given for “NCI-H146 (small cell lung carcinoma, suspension, top dose 4 µM)”?
Answer: AUC: 0.991; IC50: > 4000 nM

Question: Which AUC does the source give for “NCI-H187 (small cell lung carcinoma, suspension, top dose 4 µM)” here?
Answer: 0.784

Question: What about the IC50 of the same cell line?
Answer: 1860 nM

Question: How did the AUC turn out when “NCI-H209 (small cell lung carcinoma, suspension, top dose 4 µM)” was run?
Answer: 0.916

Question: What about the IC50 of the same cell line?
Answer: > 4000 nM

Question: For “NCI-H211 (small cell lung carcinoma, adherent, top dose 4 µM)”, which AUC is on record?
Answer: 0.98

Question: What about the IC50 of the same cell line?
Answer: > 4000 nM

Question: How did the AUC turn out when “NCI-H226 (lung squamous cell carcinoma, adherent, top dose 4 µM)” was run?
Answer: 0.985

Question: And the IC50?
Answer: > 4000 nM

Question: Which results are given for “NCI-H322M (lung adenocarcinoma, suspension, top dose 4 µM)”?
Answer: AUC: 0.934; IC50: > 4000 nM

Question: How did the AUC turn out when “NCI-H345 (small cell lung carcinoma, suspension, top dose 4 µM)” was run?
Answer: 0.866

Question: What about the IC50 of the same cell line?
Answer: 3880 nM

Question: Which AUC does the source give for “NCI-H358 (lung adenocarcinoma, adherent, top dose 2 µM)” here?
Answer: 0.97

Question: What about the IC50 of the same cell line?
Answer: > 2000 nM

Question: With “NCI-H446 (small cell lung carcinoma, semi-adherent, top dose 4 µM)” as the cell line, how does the AUC read?
Answer: 0.677

Question: What about the IC50 of the same cell line?
Answer: 812 nM

Question: With “NCI-H508 (large intestine, semi-adherent, top dose 4 µM)” as the cell line, how does the AUC read?
Answer: 0.442

Question: And the IC50?
Answer: 156 nM

Question: Which AUC does the source give for “NCI-H510A (small cell lung carcinoma, semi-adherent, top dose 4 µM)” here?
Answer: 0.956

Question: And the IC50?
Answer: > 4000 nM

Question: How did the AUC turn out when “NCI-H520 (lung squamous cell carcinoma, adherent, top dose 4 µM)” was run?
Answer: 0.697

Question: What about the IC50 of the same cell line?
Answer: 914 nM

Question: Which results are given for “NCI-H524 (small cell lung carcinoma, suspension, top dose 4 µM)”?
Answer: AUC: 0.806; IC50: 1780 nM

Question: Which results are given for “NCI-H526 (small cell lung carcinoma, suspension, top dose 4 µM)”?
Answer: AUC: 0.774; IC50: 1510 nM

Question: Which AUC does the source give for “NCI-H596 (lung adenocarcinoma, adherent, top dose 4 µM)” here?
Answer: 0.844

Question: What about the IC50 of the same cell line?
Answer: > 4000 nM

Question: “NCI-H630 (large intestine, adherent, top dose 4 µM)” was tested. Which AUC did it give?
Answer: 0.974

Question: And the IC50?
Answer: > 4000 nM

Question: How did the AUC turn out when “NCI-H647 (non-small cell lung carcinoma, adherent, top dose 4 µM)” was run?
Answer: 0.96

Question: What about the IC50 of the same cell line?
Answer: > 4000 nM

Question: What does the source list for “NCI-H650 (lung adenocarcinoma, adherent, top dose 4 µM)”?
Answer: AUC: 0.879; IC50: > 4000 nM

Question: What does the source list for “NCI-H720 (lung carcinoid, suspension, top dose 4 µM)”?
Answer: AUC: 0.637; IC50: 576 nM

Question: With “NCI-H727 (lung carcinoid, adherent, top dose 4 µM)” as the cell line, how does the AUC read?
Answer: 0.829

Question: What about the IC50 of the same cell line?
Answer: > 4000 nM

Question: For “NCI-H747 (large intestine, adherent, top dose 4 µM)”, which AUC is on record?
Answer: 0.834

Question: What about the IC50 of the same cell line?
Answer: 3460 nM

Question: For “NCI-H810 (large cell lung carcinoma, adherent, top dose 4 µM)”, which AUC is on record?
Answer: 0.988

Question: What about the IC50 of the same cell line?
Answer: > 4000 nM

Question: Which AUC does the source give for “NCI-H835 (lung carcinoid, suspension, top dose 4 µM)” here?
Answer: 0.875

Question: What about the IC50 of the same cell line?
Answer: 3600 nM

Question: Which results are given for “NCI-H841 (small cell lung carcinoma, adherent, top dose 4 µM)”?
Answer: AUC: 0.889; IC50: > 4000 nM

Question: Which results are given for “NCI-H847 (small cell lung carcinoma, adherent, top dose 4 µM)”?
Answer: AUC: 0.95; IC50: > 4000 nM

Question: With “NCI-H1048 (small cell lung carcinoma, adherent, top dose 4 µM)” as the cell line, how does the AUC read?
Answer: 0.779

Question: What about the IC50 of the same cell line?
Answer: 1460 nM

Question: “NCI-H1092 (small cell lung carcinoma, suspension, top dose 4 µM)” was tested. Which AUC did it give?
Answer: 0.938

Question: What about the IC50 of the same cell line?
Answer: > 4000 nM

Question: “NCI-H1105 (small cell lung carcinoma, suspension, top dose 4 µM)” was tested. Which AUC did it give?
Answer: 0.901

Question: What about the IC50 of the same cell line?
Answer: 3530 nM

Question: With “NCI-H1155 (large cell lung carcinoma, suspension, top dose 4 µM)” as the cell line, how does the AUC read?
Answer: 0.784

Question: What about the IC50 of the same cell line?
Answer: 1380 nM

Question: With “NCI-H1304 (small cell lung carcinoma, suspension, top dose 4 µM)” as the cell line, how does the AUC read?
Answer: 0.975

Question: What about the IC50 of the same cell line?
Answer: > 4000 nM

Question: What does the source list for “NCI-H1341 (small cell lung carcinoma, suspension, top dose 4 µM)”?
Answer: AUC: 0.555; IC50: 345 nM

Question: “NCI-H1355 (lung adenocarcinoma, adherent, top dose 2 µM)” was tested. Which AUC did it give?
Answer: 0.84

Question: And the IC50?
Answer: > 2000 nM

Question: With “NCI-H1395 (lung adenocarcinoma, adherent, top dose 4 µM)” as the cell line, how does the AUC read?
Answer: 0.921

Question: And the IC50?
Answer: > 4000 nM

Question: Which results are given for “NCI-H1417 (small cell lung carcinoma, suspension, top dose 4 µM)”?
Answer: AUC: 0.75; IC50: 1530 nM

Question: For “NCI-H1435 (lung adenocarcinoma, semi-adherent, top dose 4 µM)”, which AUC is on record?
Answer: 0.943

Question: What about the IC50 of the same cell line?
Answer: > 4000 nM

Question: “NCI-H1436 (small cell lung carcinoma, suspension, top dose 4 µM)” was tested. Which AUC did it give?
Answer: 0.943

Question: And the IC50?
Answer: > 4000 nM

Question: How did the AUC turn out when “NCI-H1437 (lung adenocarcinoma, adherent, top dose 4 µM)” was run?
Answer: 0.672

Question: What about the IC50 of the same cell line?
Answer: 772 nM

Question: What does the source list for “NCI-H1563 (lung adenocarcinoma, adherent, top dose 4 µM)”?
Answer: AUC: 0.683; IC50: 902 nM

Question: How did the AUC turn out when “NCI-H1568 (lung adenocarcinoma, adherent, top dose 4 µM)” was run?
Answer: 0.872

Question: What about the IC50 of the same cell line?
Answer: > 4000 nM

Question: What does the source list for “NCI-H1623 (lung adenocarcinoma, adherent, top dose 4 µM)”?
Answer: AUC: 0.542; IC50: 335 nM

Question: Which AUC does the source give for “NCI-H1648 (lung adenocarcinoma, adherent, top dose 2 µM)” here?
Answer: 0.774

Question: And the IC50?
Answer: 835 nM

Question: What does the source list for “NCI-H1651 (lung adenocarcinoma, adherent, top dose 4 µM)”?
Answer: AUC: 0.982; IC50: > 4000 nM

Question: What does the source list for “NCI-H1688 (small cell lung carcinoma, adherent, top dose 4 µM)”?
Answer: AUC: 0.85; IC50: 3510 nM

Question: How did the AUC turn out when “NCI-H1693 (lung adenocarcinoma, adherent, top dose 2 µM)” was run?
Answer: 0.944

Question: What about the IC50 of the same cell line?
Answer: > 2000 nM

Question: How did the AUC turn out when “NCI-H1694 (small cell lung carcinoma, suspension, top dose 4 µM)” was run?
Answer: 0.923

Question: What about the IC50 of the same cell line?
Answer: > 4000 nM

Question: Which results are given for “NCI-H1755 (lung adenocarcinoma, adherent, top dose 4 µM)”?
Answer: AUC: 0.875; IC50: > 4000 nM

Question: For “NCI-H1770 (non-small cell lung carcinoma, suspension, top dose 4 µM)”, which AUC is on record?
Answer: 0.909

Question: What about the IC50 of the same cell line?
Answer: > 4000 nM

Question: Which results are given for “NCI-H1781 (lung adenocarcinoma, adherent, top dose 4 µM)”?
Answer: AUC: 0.948; IC50: > 4000 nM

Question: Which AUC does the source give for “NCI-H1792 (lung adenocarcinoma, adherent, top dose 4 µM)” here?
Answer: 0.914

Question: What about the IC50 of the same cell line?
Answer: > 4000 nM

Question: For “NCI-H1836 (small cell lung carcinoma, suspension, top dose 4 µM)”, which AUC is on record?
Answer: 0.988

Question: And the IC50?
Answer: > 4000 nM

Question: Which AUC does the source give for “NCI-H1838 (lung adenocarcinoma, adherent, top dose 2 µM)” here?
Answer: 0.984

Question: And the IC50?
Answer: > 2000 nM

Question: For “NCI-H1869 (lung squamous cell carcinoma, adherent, top dose 4 µM)”, which AUC is on record?
Answer: 0.844

Question: And the IC50?
Answer: 3430 nM

Same assay, conditions: top dose 4 µM; screen: GDSC drug entry 1527; top dose inferred

Question: For “NCI-H1650 (lung adenocarcinoma, adherent)”, which AUC is on record?
Answer: 0.868

Question: What about the IC50 of the same cell line?
Answer: > 4000 nM
